Measurements as given in article PMC13279931.
No constants are given. Whether binding was seen depends on the method and setting. Binding seen in cells or lysates may run through a third protein. Some binding calls cover weakened binding; strength is not graded here. For part of these data: Tags and fused reporters may be left off the sequences shown.

The chains behind the UniProt entries cited, without tags or fusion partners. Where a name states a change or a piece, a line headed by the entry shows the natural chain unless it says otherwise.
UniProt O81283: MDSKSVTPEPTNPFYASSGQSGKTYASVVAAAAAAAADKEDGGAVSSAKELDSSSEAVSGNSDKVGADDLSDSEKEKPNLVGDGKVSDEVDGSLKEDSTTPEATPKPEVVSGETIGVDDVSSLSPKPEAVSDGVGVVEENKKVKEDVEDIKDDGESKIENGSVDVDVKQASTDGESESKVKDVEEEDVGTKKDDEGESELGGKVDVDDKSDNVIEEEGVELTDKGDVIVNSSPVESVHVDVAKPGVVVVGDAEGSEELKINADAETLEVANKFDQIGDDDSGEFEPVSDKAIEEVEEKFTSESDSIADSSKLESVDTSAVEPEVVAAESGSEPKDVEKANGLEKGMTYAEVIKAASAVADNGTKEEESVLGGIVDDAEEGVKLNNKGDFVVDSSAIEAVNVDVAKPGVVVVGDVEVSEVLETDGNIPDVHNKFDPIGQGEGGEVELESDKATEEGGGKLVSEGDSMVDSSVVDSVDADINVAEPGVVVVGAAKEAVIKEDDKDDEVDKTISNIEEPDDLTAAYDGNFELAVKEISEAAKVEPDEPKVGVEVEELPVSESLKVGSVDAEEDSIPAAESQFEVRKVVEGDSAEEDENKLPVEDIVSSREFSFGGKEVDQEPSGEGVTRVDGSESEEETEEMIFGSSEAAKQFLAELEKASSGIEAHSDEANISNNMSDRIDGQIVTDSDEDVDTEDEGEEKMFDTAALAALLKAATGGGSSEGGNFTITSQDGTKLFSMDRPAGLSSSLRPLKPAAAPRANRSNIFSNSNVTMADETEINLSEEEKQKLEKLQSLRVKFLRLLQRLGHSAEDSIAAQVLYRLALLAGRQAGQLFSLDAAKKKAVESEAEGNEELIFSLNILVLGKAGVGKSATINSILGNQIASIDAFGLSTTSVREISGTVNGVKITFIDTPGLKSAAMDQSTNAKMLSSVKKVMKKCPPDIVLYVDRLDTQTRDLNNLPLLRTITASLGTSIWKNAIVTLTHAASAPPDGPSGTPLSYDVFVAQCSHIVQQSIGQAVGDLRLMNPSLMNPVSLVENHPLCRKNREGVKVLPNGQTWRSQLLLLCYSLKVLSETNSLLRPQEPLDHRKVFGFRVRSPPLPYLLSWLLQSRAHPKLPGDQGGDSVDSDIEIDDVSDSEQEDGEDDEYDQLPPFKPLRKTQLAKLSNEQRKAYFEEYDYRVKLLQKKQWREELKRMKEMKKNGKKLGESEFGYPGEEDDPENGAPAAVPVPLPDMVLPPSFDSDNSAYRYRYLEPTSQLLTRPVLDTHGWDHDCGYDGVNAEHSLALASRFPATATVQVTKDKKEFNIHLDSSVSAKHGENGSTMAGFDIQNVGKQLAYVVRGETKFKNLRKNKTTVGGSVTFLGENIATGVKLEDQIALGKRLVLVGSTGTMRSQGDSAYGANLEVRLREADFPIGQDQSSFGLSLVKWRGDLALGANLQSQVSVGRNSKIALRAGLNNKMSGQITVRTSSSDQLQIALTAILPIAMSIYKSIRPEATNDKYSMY
UniProt Q9LUS2: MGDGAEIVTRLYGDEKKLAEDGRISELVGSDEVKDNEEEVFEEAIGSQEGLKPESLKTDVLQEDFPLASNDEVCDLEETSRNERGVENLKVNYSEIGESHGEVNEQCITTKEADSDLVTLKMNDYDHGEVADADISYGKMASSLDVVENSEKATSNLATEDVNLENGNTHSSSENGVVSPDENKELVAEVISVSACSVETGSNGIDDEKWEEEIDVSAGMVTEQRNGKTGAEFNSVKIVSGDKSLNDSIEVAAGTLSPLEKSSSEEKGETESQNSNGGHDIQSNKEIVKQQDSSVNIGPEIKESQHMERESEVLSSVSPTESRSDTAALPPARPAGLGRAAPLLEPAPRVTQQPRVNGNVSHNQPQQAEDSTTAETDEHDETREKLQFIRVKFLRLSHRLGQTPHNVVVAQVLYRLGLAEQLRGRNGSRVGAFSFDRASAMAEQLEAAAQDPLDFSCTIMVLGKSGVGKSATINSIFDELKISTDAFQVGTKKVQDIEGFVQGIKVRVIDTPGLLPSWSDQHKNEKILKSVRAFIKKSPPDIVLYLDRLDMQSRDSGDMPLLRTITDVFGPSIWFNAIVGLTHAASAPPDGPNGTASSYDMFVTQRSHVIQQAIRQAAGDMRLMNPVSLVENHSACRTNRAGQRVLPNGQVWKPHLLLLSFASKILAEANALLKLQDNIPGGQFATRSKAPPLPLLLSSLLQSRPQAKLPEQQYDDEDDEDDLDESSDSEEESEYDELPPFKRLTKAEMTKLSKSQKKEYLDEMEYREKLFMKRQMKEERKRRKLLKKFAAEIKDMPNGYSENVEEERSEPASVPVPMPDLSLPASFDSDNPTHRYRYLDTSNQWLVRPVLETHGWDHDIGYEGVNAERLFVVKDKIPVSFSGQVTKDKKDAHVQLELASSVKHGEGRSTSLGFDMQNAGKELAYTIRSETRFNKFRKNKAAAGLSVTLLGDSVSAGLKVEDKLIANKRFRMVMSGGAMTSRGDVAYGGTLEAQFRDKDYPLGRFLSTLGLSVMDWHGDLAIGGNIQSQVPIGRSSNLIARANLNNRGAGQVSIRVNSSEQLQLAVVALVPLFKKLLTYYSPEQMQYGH
UniProt Q9SLF3: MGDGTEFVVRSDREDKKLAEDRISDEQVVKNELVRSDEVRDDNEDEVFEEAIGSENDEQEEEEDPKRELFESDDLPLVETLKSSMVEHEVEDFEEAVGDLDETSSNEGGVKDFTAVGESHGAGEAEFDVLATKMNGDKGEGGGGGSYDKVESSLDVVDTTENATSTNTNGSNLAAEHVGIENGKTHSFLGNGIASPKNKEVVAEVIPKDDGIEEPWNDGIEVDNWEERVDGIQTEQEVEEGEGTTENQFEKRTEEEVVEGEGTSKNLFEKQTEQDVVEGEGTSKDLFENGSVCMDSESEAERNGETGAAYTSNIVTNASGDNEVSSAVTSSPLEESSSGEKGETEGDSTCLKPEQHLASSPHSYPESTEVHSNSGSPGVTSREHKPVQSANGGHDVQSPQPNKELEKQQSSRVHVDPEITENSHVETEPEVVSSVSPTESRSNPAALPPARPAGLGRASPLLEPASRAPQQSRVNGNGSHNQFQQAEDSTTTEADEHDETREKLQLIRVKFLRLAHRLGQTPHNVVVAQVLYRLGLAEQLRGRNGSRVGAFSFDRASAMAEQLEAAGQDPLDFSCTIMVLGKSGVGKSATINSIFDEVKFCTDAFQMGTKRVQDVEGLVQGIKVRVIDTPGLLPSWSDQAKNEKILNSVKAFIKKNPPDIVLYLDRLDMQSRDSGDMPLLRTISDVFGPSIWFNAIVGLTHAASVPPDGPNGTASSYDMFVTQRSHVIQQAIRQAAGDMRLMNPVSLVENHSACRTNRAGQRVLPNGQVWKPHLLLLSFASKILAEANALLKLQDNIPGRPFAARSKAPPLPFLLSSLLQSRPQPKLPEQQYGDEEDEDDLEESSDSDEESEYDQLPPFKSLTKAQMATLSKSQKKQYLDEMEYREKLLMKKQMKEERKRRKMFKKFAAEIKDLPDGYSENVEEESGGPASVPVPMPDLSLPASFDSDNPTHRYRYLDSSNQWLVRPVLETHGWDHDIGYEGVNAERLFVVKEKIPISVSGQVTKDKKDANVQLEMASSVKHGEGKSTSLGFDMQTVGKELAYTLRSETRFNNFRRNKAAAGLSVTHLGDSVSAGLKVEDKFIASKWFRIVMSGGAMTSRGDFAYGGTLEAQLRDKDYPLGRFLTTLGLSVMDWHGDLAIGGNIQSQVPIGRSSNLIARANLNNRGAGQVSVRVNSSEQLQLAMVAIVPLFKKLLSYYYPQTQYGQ

T1: HA-Toc75 (Toc75 with an HA epitope tag inserted between E142 and E143 of the precursor) (A. thaliana) (UniProt Q9STE8)
T1 sequence: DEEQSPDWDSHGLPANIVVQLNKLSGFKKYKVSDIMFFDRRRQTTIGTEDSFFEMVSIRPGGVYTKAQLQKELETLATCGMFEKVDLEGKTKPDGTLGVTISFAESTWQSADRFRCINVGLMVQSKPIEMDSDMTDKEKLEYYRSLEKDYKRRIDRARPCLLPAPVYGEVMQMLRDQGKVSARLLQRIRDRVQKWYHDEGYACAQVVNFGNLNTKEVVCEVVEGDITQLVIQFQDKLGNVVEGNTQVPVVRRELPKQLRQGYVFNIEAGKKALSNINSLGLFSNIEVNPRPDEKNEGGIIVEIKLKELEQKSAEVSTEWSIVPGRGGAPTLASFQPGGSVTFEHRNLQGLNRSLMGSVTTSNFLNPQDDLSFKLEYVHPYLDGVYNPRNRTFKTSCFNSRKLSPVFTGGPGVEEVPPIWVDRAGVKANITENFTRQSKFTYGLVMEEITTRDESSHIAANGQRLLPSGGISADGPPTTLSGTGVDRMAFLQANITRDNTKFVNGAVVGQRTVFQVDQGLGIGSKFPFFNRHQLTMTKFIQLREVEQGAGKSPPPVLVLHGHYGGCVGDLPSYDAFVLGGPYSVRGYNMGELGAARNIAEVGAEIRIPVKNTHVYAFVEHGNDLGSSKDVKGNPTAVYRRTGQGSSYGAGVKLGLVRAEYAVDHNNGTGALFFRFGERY

T2: TAP-Toc33 (tandem-affinity-purification-tagged Toc33) (A. thaliana) (UniProt O23680)
T2 sequence: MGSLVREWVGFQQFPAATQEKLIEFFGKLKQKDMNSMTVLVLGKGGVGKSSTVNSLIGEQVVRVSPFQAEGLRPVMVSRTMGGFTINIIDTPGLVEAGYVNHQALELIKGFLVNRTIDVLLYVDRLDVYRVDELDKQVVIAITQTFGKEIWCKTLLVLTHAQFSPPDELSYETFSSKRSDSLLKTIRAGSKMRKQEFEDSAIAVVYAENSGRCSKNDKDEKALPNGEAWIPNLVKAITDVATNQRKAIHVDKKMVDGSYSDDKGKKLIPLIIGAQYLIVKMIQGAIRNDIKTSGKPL

T3: Toc33G-Flag (GTPase domain of Toc33, amino acids 1-265) (A. thaliana) (UniProt O23680)
T3 sequence: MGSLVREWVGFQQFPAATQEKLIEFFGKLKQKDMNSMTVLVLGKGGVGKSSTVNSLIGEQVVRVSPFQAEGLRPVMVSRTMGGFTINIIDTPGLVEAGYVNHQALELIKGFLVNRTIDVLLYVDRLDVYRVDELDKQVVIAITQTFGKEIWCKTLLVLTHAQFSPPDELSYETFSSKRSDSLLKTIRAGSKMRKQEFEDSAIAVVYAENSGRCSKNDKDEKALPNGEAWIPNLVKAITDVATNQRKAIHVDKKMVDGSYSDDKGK

T4: Toc75 (A. thaliana (endogenous in the plants)) (UniProt Q9STE8)
T4 sequence: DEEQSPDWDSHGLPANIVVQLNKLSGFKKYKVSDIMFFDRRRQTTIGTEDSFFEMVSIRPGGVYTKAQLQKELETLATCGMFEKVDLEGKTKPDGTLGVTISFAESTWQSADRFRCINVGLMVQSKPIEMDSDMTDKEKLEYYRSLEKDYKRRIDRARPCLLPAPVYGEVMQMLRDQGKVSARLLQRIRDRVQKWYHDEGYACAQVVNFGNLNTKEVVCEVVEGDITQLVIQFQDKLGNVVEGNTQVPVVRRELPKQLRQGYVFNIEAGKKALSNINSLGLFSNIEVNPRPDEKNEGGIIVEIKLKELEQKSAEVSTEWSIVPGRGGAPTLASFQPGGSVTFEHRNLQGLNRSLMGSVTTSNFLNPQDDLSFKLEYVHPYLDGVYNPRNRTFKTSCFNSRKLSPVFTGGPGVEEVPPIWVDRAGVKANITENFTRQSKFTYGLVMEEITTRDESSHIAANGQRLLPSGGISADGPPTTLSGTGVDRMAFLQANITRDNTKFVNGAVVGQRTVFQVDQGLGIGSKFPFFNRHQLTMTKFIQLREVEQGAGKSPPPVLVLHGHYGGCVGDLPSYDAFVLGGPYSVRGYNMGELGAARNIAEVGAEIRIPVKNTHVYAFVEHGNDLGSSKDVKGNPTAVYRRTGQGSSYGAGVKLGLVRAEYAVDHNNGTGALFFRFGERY


Tests used:
[1] = biological target: T1, HA-Toc75 (Toc75 with an HA epitope tag inserted between E142 and E143 of the precursor) (A. thaliana); assay: co-IP; anti-HA affinity purification of HA-Toc75 from root (leucoplast) extracts solubilised with 1% β-DM, elution with HA peptide, 4 °C; immunoblotting, loading normalised to Toc75
[2] = biological target: T1, HA-Toc75 (Toc75 with an HA epitope tag inserted between E142 and E143 of the precursor) (A. thaliana); assay: co-IP; anti-HA affinity purification of HA-Toc75 from chloroplast-enriched leaf fractions solubilised with 1% β-DM, elution with HA peptide, 4 °C; immunoblotting, loading normalised to Toc75 (silver staining and mass spectrometry of the same kind of sample also done)
[3] = biological target: TAP-Toc159 (tandem-affinity-purification-tagged Toc159) (A. thaliana) (UniProt O81283); assay: pull-down; TAP-tag affinity purification of TAP-Toc33 or TAP-Toc159 on IgG-sepharose from chloroplast extracts solubilised with 1% β-DM, elution by TEV protease; immunoblotting, loading normalised to Toc75
[4] = biological target: T2, TAP-Toc33 (tandem-affinity-purification-tagged Toc33) (A. thaliana); assay: as above
[5] = biological target: T1, HA-Toc75 (Toc75 with an HA epitope tag inserted between E142 and E143 of the precursor) (A. thaliana); assay: co-IP; anti-HA affinity purification from extracts of about 7-day-old HA-Toc75 seedlings labelled in vivo with Na2 35SO4 (3-16 h), solubilised with 1% β-DM; SDS-PAGE, autoradiography and Coomassie staining
[6] = biological target: T3, Toc33G-Flag (GTPase domain of Toc33, amino acids 1-265) (A. thaliana); assay: co-IP; Toc33G-Flag and Toc159G-HA co-expressed transiently in N. benthamiana leaves; anti-FLAG magnetic agarose beads, lysis buffer 25 mM Tris-HCl pH 7.6, 150 mM NaCl, 1% NP-40, 1% sodium deoxycholate, 4 °C overnight; immunoblotting with anti-Flag and anti-HA
[7] = biological target: T4, Toc75 (A. thaliana (endogenous in the plants)); assay: co-sedimentation; sucrose density gradient ultracentrifugation of crude chloroplasts of the kd-toc159 mutant solubilised with 1% β-DM and 1 mM DTT; fractions analysed by immunoblotting

Molecule | binding [1] | binding [2] | binding [3] | binding [4] | binding [5] | binding [6] | binding [7]
Toc120 (from UniProt Q9LUS2 1-1089) | binds | binds |  |  |  |  | 
Toc132 (from UniProt Q9SLF3 1-1206) | binds | binds | no binding | no binding |  |  | 
Toc159 (from UniProt O81283 1-1503) | binds | binds |  | binds | binds |  | 
Toc159G-HA (GTPase domain of Toc159, amino acids 830-1078) (from UniProt O81283 830-1078) (domain or fragment) |  |  |  |  |  | binds | 
Toc33 (protein, UniProt O23680 1-297) MGSLVREWVGFQQFPAATQEKLIEFFGKLKQKDMNSMTVLVLGKGGVGKSSTVNSLIGEQVVRVSPFQAEGLRPVMVSRTMGGFTINIIDTPGLVEAGYVNHQALELIKGFLVNRTIDVLLYVDRLDVYRVDELDKQVVIAITQTFGKEIWCKTLLVLTHAQFSPPDELSYETFSSKRSDSLLKTIRAGSKMRKQEFEDSAIAVVYAENSGRCSKNDKDEKALPNGEAWIPNLVKAITDVATNQRKAIHVDKKMVDGSYSDDKGKKLIPLIIGAQYLIVKMIQGAIRNDIKTSGKPL | binds | binds | binds |  |  |  | binds
Toc75 (protein, UniProt Q9STE8 141-818) DEEQSPDWDSHGLPANIVVQLNKLSGFKKYKVSDIMFFDRRRQTTIGTEDSFFEMVSIRPGGVYTKAQLQKELETLATCGMFEKVDLEGKTKPDGTLGVTISFAESTWQSADRFRCINVGLMVQSKPIEMDSDMTDKEKLEYYRSLEKDYKRRIDRARPCLLPAPVYGEVMQMLRDQGKVSARLLQRIRDRVQKWYHDEGYACAQVVNFGNLNTKEVVCEVVEGDITQLVIQFQDKLGNVVEGNTQVPVVRRELPKQLRQGYVFNIEAGKKALSNINSLGLFSNIEVNPRPDEKNEGGIIVEIKLKELEQKSAEVSTEWSIVPGRGGAPTLASFQPGGSVTFEHRNLQGLNRSLMGSVTTSNFLNPQDDLSFKLEYVHPYLDGVYNPRNRTFKTSCFNSRKLSPVFTGGPGVEEVPPIWVDRAGVKANITENFTRQSKFTYGLVMEEITTRDESSHIAANGQRLLPSGGISADGPPTTLSGTGVDRMAFLQANITRDNTKFVNGAVVGQRTVFQVDQGLGIGSKFPFFNRHQLTMTKFIQLREVEQGAGKSPPPVLVLHGHYGGCVGDLPSYDAFVLGGPYSVRGYNMGELGAARNIAEVGAEIRIPVKNTHVYAFVEHGNDLGSSKDVKGNPTAVYRRTGQGSSYGAGVKLGLVRAEYAVDHNNGTGALFFRFGERY |  |  | binds | binds |  |  | 
Toc34 (protein, UniProt Q38906 1-313) MAALQTLREWIGIQQFPPATQSKLLEILGKYKEEDVSSLTVLVMGKGGVGKSSTVNSVIGEKAAAVSTFQSEGLRPTLVSRTRSGFTLNIIDTPGLIEGGYVNDQAINIIKRFLLNMTIDVLLYVDRLDVYRVDDLDRQVVGAITDAFGKEIWKKSALVLTHAQFSPPDGLNYNHFVSKRSNALLKVIQTGAQLKKQDLQGFSIPVILVENSGRCHKNESDEKILPCGTSWIPNLFNKITEISFNGNKAIHVDKKLVEGPNPNERGKKLIPLMFAFQYLLVMKPLVRAIKSDVSRESKPAWELRDSGLASRRS | binds | binds | no binding | no binding |  |  | 
